Positions count from the first letter of the chain named. Numbers in names are those of the source. Blank lines part the entries; values can stand above or below the molecule they belong to.
What was measured:
[1] = target: T1, huBCMA on H929 cells (Homo sapiens, UniProt Q02223, N81S); assay: FACS binding to native BCMA on H929 myeloma cells; settings: flow cytometry; muteins relative to parental 2A1
T1 construct: endogenous in cells; host or cells: H929 human multiple myeloma cell line
T1 sequence (Q02223 1-184 N81S): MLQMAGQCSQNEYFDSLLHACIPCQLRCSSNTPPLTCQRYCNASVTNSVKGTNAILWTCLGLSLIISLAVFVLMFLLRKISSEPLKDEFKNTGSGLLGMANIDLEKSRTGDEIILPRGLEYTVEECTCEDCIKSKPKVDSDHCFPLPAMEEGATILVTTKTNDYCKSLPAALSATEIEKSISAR
Method: Approximately 10 to 40×10^6 of H929 myeloma cells were resuspended in a staining solution (2% goat serum, 1% rabbit serum, 0.02% azide in PBS) and aliquoted into round-bottom, 96-well plate (Corning Incorp., Acton, Mass.) as per the experiment design. The cells were incubated at 4 degrees celsius for 30 minutes to block non-specific sites. The antibodies were titrated into the staining solution. The cells were rinsed in a rinse solution (PBS+0.02% azide) by resuspending the cells in 200 ul/well. The cells were centrifuged at 1500 rpm at 4 degrees celsius for 7 minutes. The rinse solution was removed and the rinse step was repeated. […] The huIgG1 negative control's secondary reagent was a biotinylated anti-huIgG (Jackson Labs, Bar Harbor, Me., Cat. 109-065-098), followed by a streptavidin-phycoerythrin (SA-PE) conjugate (BD Pharmingen, San Diego, Calif., Cat. 554061). […] The cells/antibodies were rinsed as described above to remove excess/unbound antibody. After the last rinse, the cells were resuspended in 200 ul of rinse solution with a drop of staining solution added to keep the cells from aggregating. Samples were read at 532 nm wavelength on FACS.
To further characterize the engineered mutein antibodies, they were tested for the ability to bind BCMA by FACS analysis. The antibodies were tested for binding to BCMA endogenously-expressed on a variety of cells, including the H929 cell line, which were developed from B-lymphocytes from a myeloma/plasmacytoma patient (ATCC, Manassa, Va.) using standard FACs techniques. Reagents were prepared using standard methods: 500 mL FACs buffer (PBS, 1% BSA, 5 mM EDTA, 0.02% NaN3), and FACs Block Buffer (30 mL FACs buffer, 5% Normal Rabbit Serum, 5% Normal Human Serum). Approximately 10 to 50×10^6 H929 cells were aliquoted in a standard 96 well plate (preferably deep-well, such as those provide by Corning). The cell volumes were adjusted to bring all volumes up to 1 mL/tube w/FACs buffer. The cells were centrifuged at 4° C. for 10 minutes at 1200 rpm. The supernatants were removed and the cell pellets were resuspended in 100 uL of FACs Block Buffer per tube. The cells were incubated for 30 to 60 minutes on ice. The BCMA antibodies were prepared by making premixes of 1:3 serial dilutions of antibodies in FACS Block Buffer starting at 10 ug/ml antibody (for example) in a final volume of 100 ul. The blocked cells were centrifuged at 4° C. for 10 minutes at 1200 rpm. The supernatants were removed and the cell pellets were resuspended in 100 uL of FACs Block Buffer containing the BCMA antibodies. The cells were incubated for 60 minutes on ice. After incubation, 1 mL of cold FACs Block Buffer was added to each tube. The cells were centrifuged at 4° C. for 10 minutes at 1200 rpm. The supernatants were removed and the cell pellets were resuspended in 100 uL of FACs Block Buffer containing biotinylated anti-huIgG (Jackson Labs, Bar Harbor, Me., Cat. 109-065-098) at a 1:100 dilution in FACs Block Buffer. The cells were incubated for 45 minutes on ice. After incubation, 1 mL of cold FACs Block Buffer was added to each tube. The cells were centrifuged at 4° C. for 10 minutes at 1200 rpm. […] The supernatants were removed and the cell pellets were resuspended in 0.2 mL/tube 4% paraformaldehyde in PBS and analyzed by flow cytometry

[2] = system: CD138+ plasma cells of multiple myeloma patient samples; assay: pHrodo internalization assay on multiple myeloma patient samples; type: cell-based, human; settings: pHrodo label, 4 hours at 37° C.
Method: Samples were acquired from commercial sources (AllCells, Conversant, Proteogenex) to acquire approximately 1×10^6 plasma cells per sample. Individual multiple myeloma (MM) samples were thawed gently at room temp (RT). The thawed cells were added dropwise into 4 ml of 50% FBS (fetal bovine serum) RPMI buffer at RT. 3 ml of 10% FBS RPMI was added to the cell suspension. The cell suspension was gently inverted to mix and centrifuged at low speed to pellet cells. The media was aspirated and the cell pellet was resuspended in 1% FBS PBS (Phosphate Buffered Saline). The cells were manually counted on a hemocytometer. The cells were added to 10 FBS RPMI and allowed to recover in an incubator for 1 hr at 37° C. with 5% CO2. Cell viability was assessed as follows. Cells from primary MM and H929 cell lines were plated at 200,000 cells per well in a 96 well plate with fresh 10% FBS RPMI buffer with 5 wells per sample. The plate was centrifuged to pellet cells and media aspirated and resuspended in PBS three times. Cells were stained with Violet Live/Dead cell stain (Molecular Probes-L34955) per manufacturer protocol and incubated at RT in the dark for 30 minutes. […] Internalization/Immunophenotype (IP) was assessed as follows. […] Cells from each well were assessed using a LSRII (BD Bioscience) and FCS files generated. […]

[3] = Differential Scanning calorimetry (DSC) thermostability; type: physicochemical; settings: full-length antibody, Table 11
From the text: Differential Scanning calorimetry (DSC) was used to compare the thermostability of parent and engineered antibodies. DSC is a thermodynamical tool for direct assessment of the heat energy uptake, which occurs in a sample within a regulated increase or decrease in temperature. DSC is commonly employed to assess the thermal and conformational stability of a protein. The melting temperature of a protein, or of individual domains, can be obtained from the DSC profile, and if the reaction is reversible the thermodynamic parameters of the unfolding can be determined. A protein is considered more thermostable when the Tm (transition temperature) is higher. When thermostability data are compared to other bioanalytical methods, like size exclusion chromatography (SEC), it has been observed that a correlation between greater thermostability (higher Tm) and decreased aggregation. […]
DSC was carried out using a MicroCal™ VP-Capillary DSC system (GE Healthcare, Piscataway, N.J.) equipped with an auto-sampler. The temperature differences between the reference and sample cells are continuously measured, and calibrated to power units. […] The solution reference and protein samples were measured in a 135 μL cell from 20 to 110° C. at a heating rate of 60° C./hour. […] Heat capacity during protein melting was calculated by normalizing over protein concentration.

[4] = Isoelectric point of whole antibody; type: physicochemical

- binding to BCMA on H929 cells [1]: reduced binding
B1: 2A1 covariance 3: 2A1_F44V + C107T; heavy chain SEQ ID NO:291, light chain 288 (antibody)
heavy: EVQLVESGGGLVKPGRSLRLSCTASGFTFGDYALSWVRQAPGKGLEWVGVSRSKAYGGTTDYAASVKGRFTISRDDSKSFAYLQMNSLKTEDTAVYYCTSSGYSSGWTPFDYWGQGTLVTVSS[omitted - human IgG1 constant region]
light: QSVLTQPPSASGTPGQRVTISCSGSSSNIGSNTVNWYQQLPGTAPKLLIFNYHQRPSGVPDRFSGSKSGSSASLAISGLQSEDEADYYCAAWDDSLNGWVFGGGTELTVLGQPKAAPSVTLFPPSSEELQANKATLVCLISDFYPGAVTVAWKADSSPVKAGVETTTPSKQSNNKYAASSYLSLTPEQWKSHRSYSCQVTHEGSTVEKTVAPTECS

- binding to BCMA on H929 cells [1]: comparable binding
B2: 2A1 covariance 1: 2A1 mutein C107T; heavy chain SEQ ID NO:289, light chain SEQ ID NO:288 (antibody)
heavy: B1 heavy with V37F
light: B1 light

- binding to BCMA on H929 cells [1]: reduced binding
B3: 2A1 covariance 8: 2A1_F44V + F88T + C107T; heavy chain SEQ ID NO:296, light chain 288 (antibody)
heavy: B1 heavy with F80T
light: B1 light

B4: 2A1CV4: 2A1-HC: R17G, T24A, C107A; heavy chain SEQ ID NO:309, light chain SEQ ID NO:312 (antibody)
heavy: B1 heavy with R16G, T23A, V37F, T99A
light: B1 light with E106K
- internalization in multiple myeloma patient samples [2]: effectively internalized in all 29 multiple myeloma patient samples
- Tm [3]: 75 °C
- pI (Whole) [4]: 8.39

- binding to BCMA on H929 cells [1]: reduced binding
B5: 2A1 covariance 9: 2A1_F44V + C107A; heavy chain SEQ ID NO:297, light chain 288 (antibody)
heavy: B1 heavy with T99A
light: B1 light

- binding to BCMA on H929 cells [1]: comparable binding
B6: 2A1 S108R: 2A1 mutein S108R (antibody)
heavy: B1 heavy with V37F, T99C, S100R
light: B1 light

From patent US10465009B2, “BCMA antigen binding proteins” (Amgen Inc., priority 2012, dated 2019)
